Test results as given in ChEMBL document CHEMBL4888484, “Replenishing the malaria drug discovery pipeline: Screening and hit evaluation of the MMV Hit Generation Library 1 (HGL1) against asexual blood stage Plasmodium falciparum ,using a nano luciferase reporter read-out” (2022).
In all, about 150,000 compounds went through this assay and about 540 (0.36%) showed an effect of 50% or more. The list shows a part of the results.

These compounds were tested on Plasmodium falciparum (assay: Primary screen in NF54 nanoGlo assay, in single point, at 2uM, 72h; a lower Z score goes with more inhibition). Details: timepoint 72 hour.
Type: functional, Erythrocyte

Structure (SMILES) | % Inhibition [%] | Z score
Cc1cccc([C@@H](NC(=O)N2CCC(CO)CC2)c2cccs2)c1 | -9 | 1.31
O=C(CCN1CCC[C@H](CNC(=O)c2ccc(F)cc2F)C1)Nc1cccnc1 | -10 | 1.24
CCCOc1ccc(CNC2CCC3(CC2)C(=O)Nc2ccccc23)cn1 (stereo unspecified) | 3 | -0.4
C[C@@]1(C(=O)NC2CCCCCC2)Cn2c(ccc2-c2ccccc2)C(=O)N1Cc1ccccc1F | -8 | 0.99
CC(C)N(Cc1cc(-c2ccccc2)[nH]n1)C(=O)[C@@H]1CCCCO1 | -6 | 1.07
COc1cccc(S(=O)(=O)NC[C@H]2CCN(C)C(=O)C2)c1OC | -10 | 1.94
O=C(NC1CCCCCCC1)c1cc2n(n1)C[C@@H](O)CNC2=O | -7 | 0.68
COC(=O)[C@@H](NC(=O)Nc1ccccc1OC)C(C)C | -6 | 0.49
O=C(OCc1csc(-c2ccccc2)n1)C1CCN(S(=O)(=O)c2ccc(Cl)cc2)CC1 | 2 | -0.38
CC(=O)N(Cc1cccnc1)[C@H]1CCCN(C(=O)Nc2ccc3c(c2)OCCO3)C1 | -11 | 1.94
CN(C(=O)[C@@H]1C[C@H]1C(=O)N(C)c1ncccc1F)c1ncccc1F | -20 | 2.4
CCCc1ccc(C(=O)N2CCC(S(=O)(=O)c3ccc(F)cc3)CC2)cc1 | -11 | 1.46
C[C@H](C(=O)c1ccccc1)C12C(=O)NC(=O)C1C(=O)NC2=O (stereo partly specified) | -11 | 1.33
CCc1ccc(C(=O)N2C[C@H](C(=O)NC)C3(CCCC3)C2)cc1 | -10 | 1.26
Cc1c(NC(=O)c2ccccc2OC[C@H]2CCCO2)c(=O)n(-c2ccccc2)n1C | -19 | 2.11
COc1cnc(C(=O)N2Cc3cc(OC)c(OC)cc3C[C@H]2C(N)=O)cc1O | -7 | 1.33
CN1CCC(N(CCO)Cc2csc3ccccc23)CC1 | -1 | 0.16
COc1ccc(-c2nc3ccc(C(=O)NCc4cccc(OC)c4)cc3nc2-c2ccc(OC)cc2)cc1 | -1 | 0.16
CCOC(=O)CN1CCC(Cn2cnc3ccccc32)CC1 | 12 | -1.42
C[C@H](NC(=O)c1cc(C(=O)O)co1)c1nc(C2CCCC2)no1 | -9 | 1.23
CN(C[C@H]1COc2ccccc2O1)C(=O)c1c[nH]c(=O)c(Cl)c1 | -4 | 0.55

Structure (SMILES) | % Inhibition [%] | Z score
Cc1nc(N[C@@H]2[C@@H]3CCO[C@@H]3[C@H]2NS(C)(=O)=O)c2sccc2n1 | 0 | -0.08
CS(=O)(=O)CC1(COc2ccc3c(n2)CCC3)CC1 | 4 | -0.61
CCc1ccc(NC(=O)Cc2c(C)nc3nc(-c4cccnc4)nn3c2C)cc1 | 3 | -0.48
O=C(NCc1ccsc1)NC[C@H](O)c1cccs1 | 16 | -2.07
Cc1cc2c(cc1NC(=O)Cn1ncccc1=O)N(C)S(=O)(=O)N2C | -12 | 1.41
CC(C)NC(=O)N1CC[C@]2(C1)c1nc[nH]c1CCN2CC1CC1 | -13 | 2.3
CC1(C)C(CNC(=O)C2CC3CCC2O3)C1c1ccccc1 (stereo unspecified) | 5 | -0.75
CC(C)Cn1c(CNC(=O)c2ccco2)nnc1N1CC[C@H](C(C)(C)C)C1 | 2 | -0.17
COc1nc(C)cc(C)c1CN1CCC[C@@](O)(CO)C1 | 0 | 0.06
O=C(c1cc(C2CC2)n[nH]1)N1CCN(c2cccc(C(F)(F)F)c2)CC1 | -11 | 0.95
C[C@@H](CC(=O)NC1CCCCCCC1)CC1=Nc2ccccc2S(=O)(=O)N1 | -12 | 1.47
Cc1ccc2ccc3cc(C(=O)N4CCN(c5ccc(F)cc5)CC4)[nH]c3c2n1 | -8 | 1.3
N#CCC1(O)CN(C(=O)c2ccc3cc[nH]c3c2)C1 | 3 | -0.32
NC(=O)[C@@H]1CCCN1Cc1c[nH]nc1-c1ccc(F)cc1 | -7 | 0.99
CCN(C[C@H]1CCOC1)C(=O)Cn1ccc(C(F)(F)F)n1 | -8 | 1.06
COc1cc(C(=O)NCCc2nccn2C)ccc1OC1CCN(C)CC1 | -8 | 0.96
COc1ccc(CN2[C@@H]3CN(S(=O)(=O)c4ccc(Cl)cc4)C[C@@H]3OCCS2(=O)=O)cc1 | 15 | -1.74
Cc1ccn2cc(CNC(=O)Nc3cccc(F)c3)nc2n1 | -8 | 1.28
CC(=O)C(C(=O)Nc1ccc(F)cc1)C(c1cccc(C(F)(F)F)c1)C(C#N)C#N (stereo unspecified) | 7 | -1.11
COc1cc(CNc2ccc(C(=O)NC3CCCCC3)cc2C)ccn1 | 14 | -1.93
CCn1cc(-c2ccc(Cl)cc2)cc1C(=O)N1CCN(C(C)C)CC1 | 1 | -0.21

Structure (SMILES) | % Inhibition [%] | Z score
C[C@H]1CN(S(=O)(=O)CCc2ccc3c(c2)CCO3)c2ccc(F)cc2O1 | -8 | 1.13
CC(C)(C)C(=O)NCC(=O)Nc1cc(C(F)(F)F)ccc1O | -10 | 1.82
c1coc(-c2ccccc2-c2nccn2CCn2cnnc2)c1 | -2 | 0.2
FC(F)(F)c1nn2c(-c3ccc(Cl)cc3)nnc2c2c1nnn2Cc1ccccc1 | -2 | 0.32
CCn1nc(CN2CCC3(CCC3)S(=O)(=O)CC2)c2ccccc21 | 1 | -0.27
Cc1ccc(-c2cccnc2)cc1NC(=O)N1CC[S+]([O-])CCC1C (stereo unspecified) | -14 | 1.78
CC(C)C1CCCC(NC(=O)CCc2ncc[nH]2)CC1 (stereo unspecified) | 8 | -1.09
Cc1cc(S(=O)(=O)Nc2cccc(CN3CCOCC3)n2)sc1C | -15 | 1.62
C[C@@H](C1CC1)N(C(=O)Cn1nnnc1C1CCCC1)C1CC1 | 33 | -2.77
CCCc1nc(CNS(=O)(=O)N2CCOCC2)cs1 | -4 | 0.78
COc1ccc(CN(C(=O)c2sccc2Cl)c2ccncc2)cc1 | 2 | -0.44
CC(C)OCC(=O)NCCc1ncnn1C | -21 | 2.07
Cc1nc(C)c(Cn2c(=O)n(C)c3ccccc32)s1 | 3 | -0.26
COc1cc(OC)cc([C@@H](CC(=O)NCCC(c2ccccc2)c2ccccc2)c2cnc3ccc(Cl)cn23)c1 | -5 | 0.64
CN(C(=O)c1cnn(-c2ccccc2)c1C1CC1)C1CCC1 | -8 | 1.25
COc1cc2c(cc1OC)CN(C(=O)C1CCN(S(=O)(=O)c3ccc(C)cc3)CC1)CC2 | -8 | 1.58
CN1[C@@H](CCC(=O)Nc2ccccc2)CNC(=O)[C@@H]2[C@H]1CCN2Cc1csnn1 | 17 | -1.93
Cc1nc2ccc(N3C(=O)[C@H](C)N(Cc4ccccc4)C3=O)cc2o1 | -10 | 1.26
Cc1cnc([C@H](C)NS(=O)(=O)c2cccc3nsnc23)s1 | -4 | 0.45
CCN1CC(C)N(C(=O)c2n[nH]c3ccccc23)CC1C (stereo unspecified) | -7 | 0.72
CC(CC(=O)N1CCCC(c2nc(=O)[nH][nH]2)C1)c1ccc(F)cc1 (stereo unspecified) | -2 | 0.35

Structure (SMILES) | % Inhibition [%] | Z score
C[C@@H](C#N)N1CCN(C(=O)OCc2ccccc2)CC1 | 3 | -0.3
COc1ccc([C@H]2OCC[C@@H]2NC(=O)Nc2ncn(C(C)(C)C)n2)cn1 | -4 | 0.5
C[C@]1(O)CCN(C(=O)c2ccc3nccnc3c2)C[C@H]1O | -7 | 0.82
Cc1cc(C2CCC2)nc(N(C)Cc2nccn2C)n1 | -4 | 0.73
CS(=O)(=O)N1CCc2cc(C(=O)N3CCC[C@H](CO)C3)ccc21 | 4 | -0.43
Cn1c(CN2CCNC(=O)[C@@H]2CCO)nc2ccccc21 | -13 | 1.39
Cc1ccc(Nc2n[nH]c(N)c2NC(=O)c2ccccc2)cc1 | 4 | -0.52
COc1ccc(NC(=O)c2nnc([C@H]3CCCN(C(=O)Nc4cc(C)ccc4C)C3)s2)cc1 | -10 | 1.51
O=C1CCCc2nc(N3CCc4ccccc4C3)ncc21 | 34 | -3.82
C[C@]1(O)CCN(c2ncnc3[nH]cnc23)C[C@H]1Cc1ccccc1 | 14 | -1.93
COc1ccccc1CNC(=O)c1nnc(-c2oc3ccc(C)cc3c2C)o1 | 13 | -1.53
CCOC1CC(NC(=O)c2c(C)noc2C)C12CCCC2 (stereo unspecified) | -5 | 0.88
Cc1ccc(Cl)cc1NC(=O)[C@H]1CCn2c(nc3ccccc32)C1 | -3 | 0.28
COc1cccc(C(=O)NC(C)C)c1O | -12 | 1.04
COC(=O)c1cc(C(=O)NC[C@H]2CCCOC2)cn1C | 7 | -1.12
Cc1oc(-c2cc(F)cc(F)c2)nc1CN1CCC(=O)NC[C@@H]1C | -9 | 1.18
CCCCN(CC)C(=O)Nc1cc(Cl)c(OC)cc1OC | 1 | -0.07
c1cc(-n2cnnc2)ccc1OC[C@H]1CCCO1 | -6 | 1.04
O=C(c1ccc2c(c1)CCCN2S(=O)(=O)c1ccccc1)N1CCN(Cc2ccccc2)CC1 | 0 | -0.05
CCc1cccc(NC(=O)N2CCN(c3nc(-c4cccc(C(F)(F)F)c4)nc(C)c3CC)CC2)c1 | -3 | 0.35
